Out of some 16,000 compounds screened, about 120 (0.75%) were called active. Not shown: some 4% with an inconclusive outcome. The call rests on the fitted dose curve; in most records, active means well fitted inhibition curve with a large enough effect; inconclusive means small, poorly fitted or top-dose-only effect; inactive means no such curve, though single readings can be large or run the other way. This is one part of the list.

Sequence of UniProt O95398 (O95398 whole entry, looked up): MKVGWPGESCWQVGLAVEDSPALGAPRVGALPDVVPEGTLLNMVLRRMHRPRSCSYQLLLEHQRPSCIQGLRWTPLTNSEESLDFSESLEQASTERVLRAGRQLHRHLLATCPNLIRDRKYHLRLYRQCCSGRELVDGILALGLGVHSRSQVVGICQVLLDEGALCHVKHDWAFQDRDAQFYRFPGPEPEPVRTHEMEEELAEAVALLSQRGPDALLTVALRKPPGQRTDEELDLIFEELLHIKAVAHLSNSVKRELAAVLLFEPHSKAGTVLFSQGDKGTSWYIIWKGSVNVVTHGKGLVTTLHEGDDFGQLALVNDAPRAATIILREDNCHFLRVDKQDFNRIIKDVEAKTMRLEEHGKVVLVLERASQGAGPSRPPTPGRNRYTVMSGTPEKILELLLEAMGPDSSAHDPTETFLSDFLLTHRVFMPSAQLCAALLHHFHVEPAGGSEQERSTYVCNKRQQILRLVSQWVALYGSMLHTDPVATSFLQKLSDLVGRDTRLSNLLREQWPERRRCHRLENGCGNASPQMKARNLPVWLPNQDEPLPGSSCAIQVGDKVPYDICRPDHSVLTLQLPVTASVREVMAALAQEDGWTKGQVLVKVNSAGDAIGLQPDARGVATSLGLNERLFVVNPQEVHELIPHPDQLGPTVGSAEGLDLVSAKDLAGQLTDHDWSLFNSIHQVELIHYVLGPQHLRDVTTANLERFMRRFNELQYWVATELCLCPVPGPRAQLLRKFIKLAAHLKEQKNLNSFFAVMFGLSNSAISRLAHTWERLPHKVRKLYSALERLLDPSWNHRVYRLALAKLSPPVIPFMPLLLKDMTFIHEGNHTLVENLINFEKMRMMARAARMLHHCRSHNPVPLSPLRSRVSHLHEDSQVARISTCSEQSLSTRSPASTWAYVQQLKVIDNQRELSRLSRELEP

The target of the experiment is Rap guanine nucleotide exchange factor 3 (Homo sapiens) (UniProt O95398). The experiment in a line: Validation qHTS for antagonist of cAMP-regulated guanine nucleotide exchange factor 3 (EPAC1).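 Further: plate controls were DMSO for no effect and ATA control for full effect; nearly all actives have a fitted effect of over 75% in size.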 As to conditions: EPAC1 Rap1B-BODIPY-GDP exchange, fluorescence; series mostly up to 150 µM; activity change, negative = inhibition: at the top concentration. An outline of the steps:
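Nucleotide exchange followed as fluorescence loss when BODIPY-GDP leaves Rap1B (480 nm excitation, 540 nm emission), read at 5 min intervals over 30 min. Reaction: 100 nM EPAC1, 250 nM RAP1B-BODIPY-GDP, 50 uM GDP; ATA and DMSO define normalization.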
In the case of `C/C=C1/C(=O)C[C@@H]2[C@H]3CCC4=CC(=O)CC[C@]4(C)[C@@H]3CC[C@]12C`, the “activity change, negative = inhibition” value was inactive: 18.8%.

Regarding `CC12CCC3C(=CCc4cc(O)ccc43)C1CCC2=O` (stereo not drawn), the “activity change, negative = inhibition” value is inactive: -11.9%. Next, `O=C(NC1CCCCC1)NC1CCCCC1`: inactive: -4.52%; `COc1ccccc1CNc1ncnc2ccc(-c3ccc(C(=O)N(C)C)cc3)cc12`: inactive: -14.4%; `Cc1noc(C)c1-c1nccc(N(C)Cc2ccco2)n1`: inactive: 0.0846%. In the case of `O=C(Cc1cscn1)N1CCOc2ccc(CN3CCN(c4ccccn4)CC3)cc2C1`, the “activity change, negative = inhibition” value is inactive: 13.2%. The figure for `FC1(F)C(F)(F)C(F)(F)C2(F)C(F)(F)C(F)(F)C(F)(F)C(F)(F)C2(F)C1(F)F` (stereo not drawn) is inactive: 21.2%; for `CN(C/C=C/C#CC(C)(C)C)Cc1cccc2ccccc12` it is inactive: 8.84%; for `CCCCCC(=O)O[C@@]1(C(C)=O)CCC2C3CCC4=CC(=O)CC[C@@]4(C)C3CC[C@]21C` (stereo partly drawn) it is inactive: -7.64%. The figure for `O=c1[nH]cnc2c1ncn2[C@H]1CC[C@@H](CO)O1` is inactive: 10.9%; for `CCCCCCc1ccc(N2C[C@H](Cc3ccccc3)[C@@H](CC(=O)Nc3ccccc3)C2=O)cc1` it is inactive: -0.095%. The figure for `NCC1OC(OC2C(N)CC(N)[C@@H](O)[C@@H]2OC2O[C@H](CO)[C@@H](O[C@@H]3OC(CN)C(O)C(O)C3N)C2O)C(N)C(O)C1O` (stereo partly drawn) is inactive: 14.3%; for `N.N.O=C(O)C1(C(=O)O)CCC1.[Pt]` it is “inactive”.

Take `COc1cc2cc[n+]3cc4c(OC)c(OC)ccc4cc3c2cc1OC`: the “activity change, negative = inhibition” value was inactive: -7.46%. The entry for `Fc1ccc([C@@H]2CCNC[C@H]2COc2ccc3c(c2)OCO3)cc1` is “inactive”; for `Cc1cccc(C)c1N(CCCc1cccnc1)C(=O)C(C)N` (stereo not drawn) it is inactive: 14.4%; for `Cc1nc2cncnc2n(-c2ccccc2)c1=O` it is inactive: -11.2%. The entry for `Clc1ccc(Nc2nnc(Cc3ccncc3)c3ccccc23)cc1` is “inactive”. Turning to `C=CC(=O)O`, the “activity change, negative = inhibition” value was inactive: 25.7%. Next, `COc1cc2c(cc1OC)CN(C(=O)[C@@H]1C[C@H](NCc3cn(C)c4ccccc34)CN1C1Cc3ccccc3C1)CC2`: inactive: -8.75%; `Cc1cc(O)c2c(c1)C(=O)c1cc(O)cc(O)c1C2=O`: “inactive”; `CN(C)C(=O)c1ccc(-c2cc(N(C)Cc3ccco3)ncn2)cc1`: inactive: -2.77%. The figure for `O=S(=O)(NCc1ccc(F)cc1)c1ccccc1Br` is inactive: 6.07%; for `CCCCCCOc1ccc(C(=N)N(CCCC)CCCC)c2ccccc12` it is inactive: -3.39%; for `O=C1[C@H](Cc2ccccc2)NCCCC[C@H](c2ccc(Cl)cc2)N1Cc1ccccc1` it is inactive: -10.7%.

For `Cc1noc(C)c1C(=O)N1CCC[C@@]2(CCN(C(=O)Nc3cccc(C#N)c3)C2)C1`, the “activity change, negative = inhibition” value was inactive: 8.8%.

Take `CS(=O)(=O)Nc1cccc(-c2ccc3ncnc(NCCN4CCOCC4)c3c2)c1`: the “activity change, negative = inhibition” value is inactive: 7.9%. Turning to `CN(C)C(=O)Oc1cccc([N+](C)(C)C)c1`, the activity change, negative = inhibition entry was “inactive”. Next, `Cc1ccc2c(c1)C(N1CCN(C)CC1)=Nc1cccnc1N2`: inactive: 2.09% [at 75.8 µM]; `COc1cccc(-c2cc(=O)c3ccc(OC)cc3o2)c1`: inactive: 12.3%. Next, `CN1CCC(OC(c2ccccc2)c2ccccc2)CC1`: “inactive”. Turning to `COc1cccc(Cn2c(=O)c(CCc3ccccc3)nc3cnc(N4CCOCC4)nc32)c1`, the “activity change, negative = inhibition” value is inactive: -8.5%. Next, `CCOC(=O)[C@H](CCc1ccccc1)N[C@@H](C)C(=O)N1Cc2cc(OC)c(OC)cc2C[C@H]1C(=O)O`: inactive: 10.6%. The figure for `O=C(Oc1cccc2cccnc12)c1ccccc1` is inactive: 12.2%.

Consider `C/C(O)=C1\C(=O)[C@@H]2[C@H]3c4c[nH]c5cccc(c45)C[C@H]3C(C)(C)N2C1=O`, for which the activity change, negative = inhibition result is “inactive”. Next, `C/C=C1\[C@H]2C=C(C)C[C@]1(N)c1ccc(=O)[nH]c1C2`: inactive: 13.4%; `O=C(CS)Nc1ccccc1`: inactive: 3.21%. The figure for `O=C(NCC1CCC2(CCN(Cc3c[nH]c4ccccc34)CC2)O1)C1CCOCC1` (stereo not drawn) is inactive: 2.25%; for `COc1ccc(-c2nc3cnc(N4CCN(C)CC4)nc3n(-c3ccc(OC)cc3)c2=O)cc1` it is inactive: 19%. With `O=c1[nH]cnc2[nH]ncc12`, the activity change, negative = inhibition result is “inactive”. The figure for `Nc1ccc2c3c(cccc13)C(=O)NC2=O` is inactive: -6.18% [at 75.8 µM]; for `COC(=O)[C@@H]1CCCN1C(=O)c1c(OC)cc(=O)n2c1CCN(Cc1ccc(C)o1)CC2` it is inactive: -1.79%; for `COc1ccc(-n2c(=O)c(CCc3ccccc3)nc3cnc(OC)nc32)cc1` it is inactive: 10.3%. The figure for `c1ccc(Nc2ncnc3ccc(-c4ccc5c(c4)OCO5)cc23)cc1` is inactive: 19.9%; for `CN(C)c1ccc(/C=C/c2c3ccccc3nc3ccccc23)cc1` it is inactive: 21.6%. In the case of `CCCCCCCCN1[C@@H](CC(=O)OC)c2ccc(/C=C/C(=O)OC)cc2S1(=O)=O`, the “activity change, negative = inhibition” value is inactive: 11.9%.

Consider `CC(C(=O)O)c1ccc(C(=O)c2cccs2)cc1` (stereo not drawn), for which the activity change, negative = inhibition result is “inactive”. With `CN(CC1COCCO1)C(=O)c1cnn(-c2nccc(-c3ccccc3C(F)(F)F)n2)c1C1CC1` (stereo not drawn), the “activity change, negative = inhibition” value is inactive: 10.8%.

These data come from PubChem BioAssay AID1645882 (National Center for Advancing Translational Sciences (NCATS), 2021).
